This assay concerns the target TCR Vδ2 (TRDV2) (human), A0JD36. Briefly: cell-based or functional assay.

Where a chain is given by its changes, count along the chain named.

Sequence of TCR Vδ2 (TRDV2) (human), A0JD36 (A0JD36 20-115, stated change not applied): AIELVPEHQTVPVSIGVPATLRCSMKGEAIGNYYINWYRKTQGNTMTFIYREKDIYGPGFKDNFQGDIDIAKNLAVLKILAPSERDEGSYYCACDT

B1: VG9B383 (antibody, human IgG1, lambda)
heavy: QVQLQESGPGLVKPSETLSLTCTVSSGSISSYYWNWIRQPAGKGLEWVGRIYTIGNTNYNPSLKSRVTMSIDTSKNQFSLNLSSVTAADTAVYFCAREGYYDSSGSFFPGAFGIWGQGTMVTVSS[human IgG1 constant region omitted here]
light: SSELTQPASVSGSPGQSITISCTGTSNDVGSYNLVSWYQQHPGKAPKLMIYAGSKRPSGISNRFSGSKSGNTASLTISGLQAEDEADYYCCSFAGATNVVFGGGTKLTVLGQPKAAPSVTLFPPSSEELQANKATLVCLISDFYPGAVTVAWKADSSPVKAGVETTTPSKQSNNKYAASSYLSLTPEQWKSHRSYSCQVTHEGSTVEKTVAPTECS
In turn, B1 came in with a CD25+ (Vg9+ cells), flow staining of 29.7%; a CD71+ (Vg9+ cells), flow staining of 91.3%; a Granzyme B (Luminex, supernatant) of 6030; an IFNγ (Luminex, supernatant) of 1240. For the same molecule, the IL6 (Luminex, supernatant) was determined as 379; the TNFα (Luminex, supernatant) is 687; the Vg9 T cell %, flow staining was found to be 6.4%.

B2: VG9B465 (antibody, human IgG1, lambda)
heavy: QVQLQQSGPGLVKPSETLSLTCTVSGGSITSYYWNWIRQPAGKGLEWIGRIYTIGNTNYNPSLKSRVTMSIDTSKHQFSLKLSSVTGADTAVYYCAREGYYESDGSFFPGAFNIWGQGTMVTVSS[human IgG1 constant region omitted here]
light: B1 light with F93Y, A96T, L107V
For the molecule B2, the CD25+ (Vg9+ cells), flow staining was 28.7%; the CD71+ (Vg9+ cells), flow staining came to 94%; the Granzyme B, Luninex (supernatant) amounted to 1470; the IFNγ, Luninex (supernatant) is 795. This molecule also yielded an IL6, Luninex (supernatant) of 126; a TNFα, Luninex (supernatant) of 132; a Vg9 T cell %, flow staining of 3.6%.

B3: VG9B87 (antibody, human IgG1, kappa)
heavy: QVQLVESGAEVKKPGASVKVSCKASGYTFTSEYIHWVRQAPGQGLEWMGIINPSGGSTSYAQRFQGRVTMTRDTSTSTVYMEVNSLRSEDTAVYYCARERGYSYGSFDYWGQGTLVTVSS[human IgG1 constant region omitted here]
light: EIVLTQSPSFLSASAGDRVTITCRASQGISSYLAWYQQKPEKAPKLLIYAASTLQSGVPSRFSGSGSGTEFTLTISSLQPEDFATYYCQQFNSYSLTFGGGTKLEIKRTVAAPSVFIFPPSDEQLKSGTASVVCLLNNFYPREAKVQWKVDNALQSGNSQESVTEQDSKDSTYSLSSTLTLSKADYEKHKVYACEVTHQGLSSPVTKSFNRGEC
B3 returned a CD25+ (Vg9+ cells), flow staining of 32.9%; a CD71+ (Vg9+ cells), flow staining of 94.5%; a Granzyme B, Luninex (supernatant) of 652; an IFNγ, Luninex (supernatant) of 154. The same molecule showed an IL6, Luninex (supernatant) of 117; a TNFα, Luninex (supernatant) of 674; a Vg9 T cell %, flow staining of 4.5%.

B4: VG9B470 (antibody, human IgG1, kappa)
heavy: QVTLKESGPTLVKPTQTLTLTCTFSGFSLTTSGVGVGWIRQPPGKALEWLALILWNDHTIYSPSLKSRLTITKDTSKNQVVLTMTNMDPVDTAAYFCARDKWELRDAFDIWGQGTMVTVSS[human IgG1 constant region omitted here]
light: EIVMTQSPSFLSASVGDRVTFTCRASQGISRYLAWYQQKPGRAPNLLIYVASTLQSGVPSRFSGSGSGTEFTLTISSLLPEDFATYYCQQLISYPYTFSQGTRLEIKRTVAAPSVFIFPPSDEQLKSGTASVVCLLNNFYPREAKVQWKVDNALQSGNSQESVTEQDSKDSTYSLSSTLTLSKADYEKHKVYACEVTHQGLSSPVTKSFNRGEC
As to B4, the CD25+ (Vg9+ cells), flow staining was found to be 43.5%; the CD71+ (Vg9+ cells), flow staining is 92.6%; the Granzyme B (Luminex, supernatant) turned out to be 2230; the IFNγ (Luminex, supernatant) is 828. The molecule further showed an IL6 (Luminex, supernatant) of 554; a TNFα (Luminex, supernatant) of 3660; a Vg9 T cell %, flow staining of 2.3%.

B5: VG9B201 (antibody, human IgG1, lambda)
heavy: QVTLKESGPTLVKPTQTLTLTCTFSGFSLTTHGVGVGWIRQPPRKALEWLALIYWNADKHYSPSLKSRLTITKDTSKNQVVLTMTHMDPVDTATYYCAHEGDWGHYFDFWGQGTLVTVSS[human IgG1 constant region omitted here]
light: QLVLTQPPSVSAAPGQKVTISCSGSSSNIGNNDVSWYQQLPGTAPKLLIYDNNRRPSGIPDRFSGSKSGTSATLGITGLQTGDEADYYCETWDSSLSAIWVFGGGTKVTVLGQPKAAPSVTLFPPSSEELQANKATLVCLISDFYPGAVTVAWKADSSPVKAGVETTTPSKQSNNKYAASSYLSLTPEQWKSHRSYSCQVTHEGSTVEKTVAPTECS
As to B5, the CD25+ (Vg9+ cells), flow staining was determined as 21.8%; the CD71+ (Vg9+ cells), flow staining turned out to be 89.4%; the Granzyme B (Luminex, supernatant) worked out at 987; the IFNγ (Luminex, supernatant) was 225. Further, the IL6 (Luminex, supernatant) was determined as 77; the TNFα (Luminex, supernatant) is 460; the Vg9 T cell %, flow staining came out at 4.2%.

B6: VG9B396 (antibody, human IgG1, lambda)
heavy: EVQLVESGPGLVQPSETLSLTCTVSGDSIRGYYWNWIRQPAGKGLEWIGRIFTTGNTNYNPSLKSRLTMSLDTSKNQFSLKLNSVTAADTAVYYCAREKWDSSSSALYFDFWGQGTLVTVSS[human IgG1 constant region omitted here]
light: QSVLTQAPSVSGAPGQRVTISCTGSSSNIGADYDVKWYQQLPGTAPKLLIYGNTDRPSGVPDRFSGSKSGTSASLAITGLQAEDEADYYCQSYDSRLTGYVVFGGGTKLTVLGQPKAAPSVTLFPPSSEELQANKATLVCLISDFYPGAVTVAWKADSSPVKAGVETTTPSKQSNNKYAASSYLSLTPEQWKSHRSYSCQVTHEGSTVEKTVAPTECS
B6 showed a CD25+ (Vg9+ cells), flow staining of 44.7%; a CD71+ (Vg9+ cells), flow staining of 92.7%; a Granzyme B (Luminex, supernatant) of 1390; an IFNγ (Luminex, supernatant) of 531. The same molecule gave a Vg9 T cell %, flow staining of 2.7%.

B7: VG9B382 (antibody, human IgG1, lambda)
heavy: QVQLQESGPGLVKPSETLSLTCTVSGDSISGYYWNYIRQPAGKGLDWIGRIFTTGNTNYNPSLKSRVTMSVDTSKNQFSLKLTSVTAADTAVYYCARERWDSSSSALYFDYWGQGTLVTVSS[human IgG1 constant region omitted here]
light: B6 light with A7P, V35I, T54S, D55N, A73V, R96S, L97M, T98S
Turning to B7, the CD25+ (Vg9+ cells), flow staining amounted to 32.7%; the CD71+ (Vg9+ cells), flow staining was determined as 93.9%; the Granzyme B (Luminex, supernatant) came out at 1640; the IFNγ (Luminex, supernatant) is 440. Besides, the IL6 (Luminex, supernatant) was 46; the TNFα (Luminex, supernatant) was found to be 49; the Vg9 T cell %, flow staining was 6%.

B8: VG9B177 (antibody, human IgG1, lambda)
heavy: QVQLQESGPGLVKPSETLSLTCTVSGGSINNYFWSWIRQPPGKGLEWIGYIFYSGSTNYNPSLKSRVTISIDTSKNQFSLKVNSVTAADTAVYYCARVGKWELRTAFDIWGQGTMVTVSS[human IgG1 constant region omitted here]
light: QSALTQPASVSGSPGQSITISCTGTSSDVADYNYVSWYQQHPGKAPKLMIYEVSNRPSGVSNRFSGSKSGNTASLTISGLQAEDEADYYCCSYTSSFTVVFGGGTKVTVLGQPKAAPSVTLFPPSSEELQANKATLVCLISDFYPGAVTVAWKADSSPVKAGVETTTPSKQSNNKYAASSYLSLTPEQWKSHRSYSCQVTHEGSTVEKTVAPTECS
B8 yielded a CD25+ (Vg9+ cells), flow staining of 22.8%; a CD71+ (Vg9+ cells), flow staining of 88.6%; a Granzyme B, Luninex (supernatant) of 768; an IFNγ, Luninex (supernatant) of 60. This molecule also displayed an IL6, Luninex (supernatant) of 117; a TNFα, Luninex (supernatant) of 99; a Vg9 T cell %, flow staining of 2.4%.

B9: VG9B194 (antibody, human IgG1, lambda)
heavy: EVQLLESGAEVKKPGASVKVSCKASGYTFTGDYMHWVRQAPGQGLEWMGWINPNSGYTNNAEKFQGRVTMTRDTSISTAYMELSRLSSDDTAVYYCTRELDALDVWGQGTMVTVSS[human IgG1 constant region omitted here]
light: QSVLTQPPSASGSPGQSVTISCTGTSSDVGGYNYVSWYQQHPGKAPKLMIYEVSKRPSGVPDRFSGSKSGNTASLTVSGLQAEDEADYYCNSYAGSNNFEVFGGGTKVTVLGQPKAAPSVTLFPPSSEELQANKATLVCLISDFYPGAVTVAWKADSSPVKAGVETTTPSKQSNNKYAASSYLSLTPEQWKSHRSYSCQVTHEGSTVEKTVAPTECS
For the molecule B9, the CD25+ (Vg9+ cells), flow staining is 17%; the CD71+ (Vg9+ cells), flow staining stood at 82.6%; the Granzyme B, Luninex (supernatant) was 316; the IFNγ, Luninex (supernatant) was 44. In addition, the IL6, Luninex (supernatant) was found to be 40; the TNFα, Luninex (supernatant) amounted to 276; the Vg9 T cell %, flow staining was 3.7%.

B10: VG9B208 (antibody, human IgG1, lambda)
heavy: QVQLQESGPGLVKPSETLSLTCTVSGGSISGYYWSWIRQPPGKGLELIGYIFYSGSINYNPSLKNRVTISLDTSKNQFSLKLTSVTAADTAVYYCARVGKWELRSSFDIWGQGTMVTVSS[human IgG1 constant region omitted here]
light: QSVLTQPPSVSAAPGQKVTISCSGSTSNIGNNDVSWYQQLPGTAPKLLIYDNNKRPSGIPDRFSGSKSGTSATLGITGLQTGDEADYYCGTWDSSLSVWVFGGGTKLTVLGQPKAAPSVTLFPPSSEELQANKATLVCLISDFYPGAVTVAWKADSSPVKAGVETTTPSKQSNNKYAASSYLSLTPEQWKSHRSYSCQVTHEGSTVEKTVAPTECS
B10: the CD25+ (Vg9+ cells), flow staining was determined as 16.8%; the CD71+ (Vg9+ cells), flow staining worked out at 91.7%; the Granzyme B, Luninex (supernatant) worked out at 618; the IFNγ, Luninex (supernatant) stood at 68. Besides, the IL6, Luninex (supernatant) was determined as 31; the TNFα, Luninex (supernatant) came to 22; the Vg9 T cell %, flow staining is 3.8%.
